From a collection of fitness landscapes (doi:10.1038/s41467-024-54723-y) come the findings set out here.

In all, about 18,000 sequences were measured (“TetR repression strength (sort-seq, GFP reporter)”: median about 0.23, highest 2% from about 0.68 on). The list shows a part of the results.

Chain of UniProt P04483 (P04483 whole entry): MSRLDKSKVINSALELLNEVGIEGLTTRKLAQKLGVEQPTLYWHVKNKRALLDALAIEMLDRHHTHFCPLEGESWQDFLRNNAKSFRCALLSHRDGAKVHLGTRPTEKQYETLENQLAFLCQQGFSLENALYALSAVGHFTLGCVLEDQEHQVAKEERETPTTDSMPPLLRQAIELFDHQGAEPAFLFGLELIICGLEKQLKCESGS

The target in this experiment is TetR (class B, Tn10) (UniProt P04483). Kind of experiment: TetR repression strength (sort-seq, GFP reporter) (relative to tetO2 = 1); higher = stronger repression. The settings on record: E. coli. The essentials:
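E. coli SIG10-MAX carried a low-copy plasmid library with eight randomized operator positions between a constitutive promoter and sfGFP, with TetR constitutively expressed. Cells grew 5 h at 37 °C in LB with 50 µg/mL chloramphenicol, then 10^6 cells were FACS-sorted into 13 fluorescence bins, each Illumina-sequenced. Repression strength is the top bin index plus one minus the read-weighted mean bin, divided by the wild-type operator value. Three independent transformations; variants with ≥30 reads in all replicates and CV ≤0.5 were averaged.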
Take TCCCGCCAAGTAGAGGAGA: the TetR repression strength stood at 0.279.

Take TCCCTTCTAGTGAGTGAGA: the TetR repression strength worked out at 0.246.

TCCCATTTAGTATTCGAGA gave a TetR repression strength of 0.215.

The sequence TCCCGAGAAGTCAAGGAGA displayed a TetR repression strength of 0.509.

Sequence TCCCCGAAAGTCGTCGAGA had a TetR repression strength of 0.317.

With TCCCGGGGAGTTTTAGAGA, the TetR repression strength was determined as 0.547.

With TCCCCTAAAGTGGGCGAGA, the TetR repression strength is 0.563.

TCCCTATGAGTTTAAGAGA showed a TetR repression strength of 1.03.

TCCCTGAGAGTACGTGAGA had a TetR repression strength of 0.304.

TCCCGTGTAGTCCGGGAGA displayed a TetR repression strength of 0.18.

TCCCAATGAGTGCCCGAGA registered a TetR repression strength of 0.285.

For the sequence TCCCGAATAGTCACAGAGA, the TetR repression strength was determined as 0.4.

Sequence TCCCAAGAAGTAGAAGAGA returned a TetR repression strength of 0.257.

The sequence TCCCTCTCAGTGATAGAGA displayed a TetR repression strength of 0.866.

Consider TCCCTCAGAGTTGGTGAGA, for which the TetR repression strength amounted to 1.2.

Take TCCCTTTCAGTGGTTGAGA: the TetR repression strength is 0.32.

As to TCCCACGGAGTTTTAGAGA, the TetR repression strength worked out at 0.34.

In turn, TCCCTCGTAGTCACGGAGA returned a TetR repression strength of 0.411.

TCCCCCTCAGTGTGCGAGA: the TetR repression strength worked out at 0.303.

TCCCTTGCAGTACCTGAGA registered a TetR repression strength of 0.0207.

TCCCCCACAGTCATGGAGA yielded a TetR repression strength of 0.201.

The sequence TCCCACTTAGTGGCAGAGA yielded a TetR repression strength of 0.171.

TCCCTCCAAGTGGTGGAGA: the TetR repression strength came out at 0.235.

TCCCATTAAGTATATGAGA yielded a TetR repression strength of 0.278.

Turning to TCCCCACCAGTTAAAGAGA, the TetR repression strength was found to be 0.311.

As for TCCCGGGTAGTGGGAGAGA, the TetR repression strength worked out at 0.174.

Sequence TCCCTGGGAGTAACGGAGA came in with a TetR repression strength of 0.283.

In turn, TCCCTTCAAGTGTTTGAGA returned a TetR repression strength of 0.308.

Consider TCCCGTTTAGTGAGTGAGA, for which the TetR repression strength worked out at 0.23.

In turn, TCCCGACCAGTGCACGAGA registered a TetR repression strength of 0.42.

TCCCGGGTAGTCTGCGAGA returned a TetR repression strength of 0.185.

The sequence TCCCGCTGAGTATTAGAGA returned a TetR repression strength of 0.352.

In turn, TCCCATCCAGTAGGTGAGA came in with a TetR repression strength of 0.165.

In the case of TCCCAAGGAGTTTTGGAGA, the TetR repression strength was 0.26.

Sequence TCCCGGTTAGTTGCTGAGA yielded a TetR repression strength of 0.224.

TCCCCTTCAGTGTCCGAGA had a TetR repression strength of 0.395.

For TCCCACATAGTAGAGGAGA, the TetR repression strength was found to be 0.163.

TCCCGGGTAGTGGCTGAGA registered a TetR repression strength of 0.404.

On to TCCCCATGAGTACTAGAGA, for which the TetR repression strength was found to be 0.424.

TCCCTGGTAGTTCGGGAGA: the TetR repression strength was 0.0446.

For TCCCTTTAAGTATTAGAGA, the TetR repression strength is 0.0716.

TCCCTGATAGTCGTGGAGA: the TetR repression strength was 0.346.

The sequence TCCCGCGGAGTAGTAGAGA came in with a TetR repression strength of 0.279.

On to TCCCGAGAAGTGTGCGAGA, for which the TetR repression strength is 0.184.

The sequence TCCCCTCGAGTTGCCGAGA yielded a TetR repression strength of 0.361.

In turn, TCCCTATCAGTGACGGAGA had a TetR repression strength of 0.472.

For the sequence TCCCCTACAGTTTTGGAGA, the TetR repression strength was determined as 0.0179.

For the sequence TCCCATCAAGTTTGGGAGA, the TetR repression strength is 0.16.

As for TCCCACAAAGTATAGGAGA, the TetR repression strength stood at 0.307.

For the sequence TCCCGGTTAGTGGGGGAGA, the TetR repression strength amounted to 0.196.

As to TCCCGCGTAGTCTGCGAGA, the TetR repression strength was found to be 0.305.

The sequence TCCCGTGAAGTGAAGGAGA returned a TetR repression strength of 0.211.

On to TCCCCACAAGTAGGTGAGA, for which the TetR repression strength was 0.214.

TCCCGTCAAGTCACTGAGA had a TetR repression strength of 0.176.

For the sequence TCCCTAAAAGTGTAAGAGA, the TetR repression strength was 0.447.

Regarding TCCCGTCAAGTAATTGAGA, the TetR repression strength was determined as 0.387.

Regarding TCCCGTCGAGTTAATGAGA, the TetR repression strength is 0.641.

Take TCCCTGGCAGTTCGAGAGA: the TetR repression strength is 0.344.

With TCCCGGTCAGTGCTCGAGA, the TetR repression strength came to 0.438.

As for TCCCACAGAGTAGGTGAGA, the TetR repression strength was 0.0401.

In turn, TCCCTTAGAGTCCCCGAGA registered a TetR repression strength of 0.295.

With TCCCAGGAAGTCGGAGAGA, the TetR repression strength came out at 0.274.

TCCCCCTTAGTGCTGGAGA returned a TetR repression strength of 0.422.

TCCCGCGTAGTCCTCGAGA: the TetR repression strength is 0.294.

Regarding TCCCGACTAGTGAGTGAGA, the TetR repression strength was 0.677.

In the case of TCCCCACTAGTGAAGGAGA, the TetR repression strength was 0.203.

The sequence TCCCGGGTAGTGCTTGAGA returned a TetR repression strength of 0.253.

The sequence TCCCGGTAAGTACCTGAGA displayed a TetR repression strength of 0.0225.

As for TCCCCTCCAGTGGGTGAGA, the TetR repression strength came to 0.225.

In the case of TCCCAAAAAGTAGCAGAGA, the TetR repression strength was found to be 0.273.

Regarding TCCCGGCAAGTCCTGGAGA, the TetR repression strength was found to be 0.284.

In turn, TCCCTCATAGTGCCAGAGA gave a TetR repression strength of 0.504.

For the sequence TCCCATTAAGTACCGGAGA, the TetR repression strength came out at 0.104.

For the sequence TCCCACAAAGTCTGTGAGA, the TetR repression strength was found to be 0.513.

Consider TCCCATTTAGTTGGAGAGA, for which the TetR repression strength was 0.352.

Regarding TCCCACTGAGTGGATGAGA, the TetR repression strength is 0.143.

Sequence TCCCCTACAGTTAGAGAGA registered a TetR repression strength of 0.521.

Sequence TCCCTCGAAGTTGTTGAGA yielded a TetR repression strength of 0.36.

The sequence TCCCCTGAAGTTGTGGAGA gave a TetR repression strength of 0.0108.

For the sequence TCCCTCGCAGTGACTGAGA, the TetR repression strength was found to be 0.3.

For TCCCGATGAGTCCAGGAGA, the TetR repression strength came to 0.209.

As for TCCCTCTCAGTGTAGGAGA, the TetR repression strength is 0.507.

In turn, TCCCCTTCAGTACGAGAGA had a TetR repression strength of 0.251.

On to TCCCGTGGAGTAGGTGAGA, for which the TetR repression strength turned out to be 0.24.

TCCCATGCAGTTTGCGAGA had a TetR repression strength of 0.217.

TCCCGCGCAGTCGCTGAGA returned a TetR repression strength of 0.504.

For TCCCTGGGAGTCTGGGAGA, the TetR repression strength turned out to be 0.263.

The sequence TCCCGATTAGTGGCCGAGA had a TetR repression strength of 0.329.

For TCCCTAGAAGTGAGCGAGA, the TetR repression strength turned out to be 0.255.

For the sequence TCCCCGGCAGTCTAGGAGA, the TetR repression strength was 0.123.

TCCCTTGCAGTGGACGAGA displayed a TetR repression strength of 0.354.

In turn, TCCCGCAAAGTGCTGGAGA showed a TetR repression strength of 0.242.

The sequence TCCCTCTTAGTGGCGGAGA yielded a TetR repression strength of 0.183.

In the case of TCCCTGCCAGTTCATGAGA, the TetR repression strength stood at 0.0931.

On to TCCCGAGCAGTGGAGGAGA, for which the TetR repression strength came to 0.35.

As for TCCCATCAAGTGGGCGAGA, the TetR repression strength turned out to be 0.0628.

TCCCGGTGAGTGTTTGAGA: the TetR repression strength is 0.493.

For TCCCAGTGAGTAACCGAGA, the TetR repression strength stood at 0.381.

The sequence TCCCACAAAGTGTCCGAGA returned a TetR repression strength of 0.308.

For TCCCAAGGAGTACGAGAGA, the TetR repression strength was determined as 0.498.

In turn, TCCCGCTCAGTCCGGGAGA registered a TetR repression strength of 0.506.

Regarding TCCCGCTTAGTGATTGAGA, the TetR repression strength is 0.189.
